Reference: article PMC6919601, “Identification of Plasmodium dipeptidyl aminopeptidase allosteric inhibitors by high throughput screening” (PLoS ONE, 2019)
Screen size: about 110,000 compounds; about 230 (0.21%) showed an effect of 50% or more. The list shows a part of the results.

Target: DPAP1 (Plasmodium falciparum, UniProt Q8IIJ9)
Assay: primary screen, percent inhibition; read by cleavage of a fluorogenic dipeptide substrate; higher = more effect of the substance
Design: species or system P. falciparum D10 trophozoite lysates; single well
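Also: 30 min substrate incubation versus DMSO and 10 µM JCP410 controls.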

Chain of DPAP1 (Q8IIJ9 whole entry, looked up): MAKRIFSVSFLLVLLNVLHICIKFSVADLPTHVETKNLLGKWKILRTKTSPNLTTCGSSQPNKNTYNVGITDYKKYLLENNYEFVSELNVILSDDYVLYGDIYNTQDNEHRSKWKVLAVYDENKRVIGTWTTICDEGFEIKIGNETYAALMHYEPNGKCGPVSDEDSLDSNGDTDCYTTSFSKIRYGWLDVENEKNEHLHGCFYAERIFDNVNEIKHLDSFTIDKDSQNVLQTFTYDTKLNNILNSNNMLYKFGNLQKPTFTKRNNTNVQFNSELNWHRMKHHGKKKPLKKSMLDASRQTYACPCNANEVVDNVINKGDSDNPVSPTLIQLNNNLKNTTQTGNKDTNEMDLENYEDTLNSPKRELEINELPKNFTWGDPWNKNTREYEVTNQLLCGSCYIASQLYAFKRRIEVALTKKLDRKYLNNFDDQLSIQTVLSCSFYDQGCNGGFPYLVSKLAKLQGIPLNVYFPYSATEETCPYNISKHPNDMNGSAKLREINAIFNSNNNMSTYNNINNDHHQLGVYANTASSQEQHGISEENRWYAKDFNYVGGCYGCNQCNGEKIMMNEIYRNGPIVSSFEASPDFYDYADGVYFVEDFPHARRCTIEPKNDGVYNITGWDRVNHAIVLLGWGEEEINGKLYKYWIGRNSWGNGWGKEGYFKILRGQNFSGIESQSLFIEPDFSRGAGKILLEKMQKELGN

| SMILES | % Inhibition @ 10 uM |
| --- | --- |
| CCCCNS(=O)(=O)c1ccc2c(c1)C(=O)c1ccccc1C2=O | 2.24% |
| O=C(Nc1nc2ccccc2s1)c1c(F)cccc1Cl | 2.44% |
| CCN(CC)C(=O)/C(=C/c1ccccc1Cl)NC(=O)c1ccc(C)cc1 | 2.58% |
| Nc1cc(/C=C/C(=O)O)ccc1C(=O)O | 31.7% |
| CN(C)c1ccc(Nc2nc(-c3ccc(Br)cc3)cs2)cc1 | -7.8% |
| COc1ccc(CNC(=O)c2cnn3c2NC(c2ccc(OC)c(OC)c2)CC3C(F)(F)F)cc1 (stereo not shown) | -1.88% |
| CN(Cc1ccccc1)c1oc(/C=C/c2ccc(F)cc2)nc1C#N | 2.54% |
| CCOC(=O)c1[nH]c(C)c(C(=O)c2cc(F)ccc2F)c1C | -0.268% |
| CC(C)Oc1ccc(CNC(=O)C2CCCN(S(=O)(=O)N(C)C3CCCCC3)C2)cc1 (stereo not shown) | -4.41% |
| CN1CCN(c2ncccc2S(=O)(=O)N2CCCCC2)CC1 | -7.62% |
| CCSc1nnc(NC(=O)C2CCCN2S(=O)(=O)c2cccc3nsnc23)s1 (stereo not shown) | -0.465% |
| COc1ccc(NC(=O)c2cc(F)c(Cl)nc2Cl)cc1 | 3.53% |
| CCN(C(=O)c1cc(OC)cc(OC)c1)c1nc(-c2ccc(Br)cc2)cs1 | 7.31% |
| O=C1NC(=O)C(=Cc2ccccc2[N+](=O)[O-])C(=O)N1 | 3.06% |
| CCOc1ccc(-c2cc(-c3nc4c5c(C)c(C)oc5ncn4n3)[nH]n2)cc1 | -1.34% |
| O=C1NC(=O)/C(=C\c2cc(Cl)c(OCc3ccc(F)cc3)c(Cl)c2)N1 | 5.37% |
| Cc1cccc(NC(=O)c2ccc(COc3ccc(F)cc3)o2)c1 | -7.98% |
| O=C(CNC1CCCCC1)N1c2ccccc2C=Cc2ccccc21 | 4.52% |
| Cc1ccc2oc(=O)c3cnn(CC(=O)Nc4ccc(Cl)cn4)c3c2c1 | -1.7% |
| Fc1ccc(CN2CCc3c([nH]c4ccccc34)C2)c(F)c1 | 4.57% |
| CSCCC1C(C#N)=C(N)Oc2[nH]nc(-c3ccccc3Cl)c21 (stereo not shown) | 4.09% |
| Cc1ccccc1OCC(=O)N1CCOCC1 | -3.23% |
| O=S(=O)(Nc1ccccc1Br)c1ccc(Cl)cc1 | -2% |
| C=C(C)C[C@H](NC(=O)OCc1ccccc1)C(=O)NCC#N | -3.49% |
| CC1CCCCN1CCNC(=O)c1ccc(CS(=O)(=O)Cc2ccc(Cl)cc2)o1 (stereo not shown) | -6.88% |
| CC(C)CCN1C(=O)c2ccc(C(=O)O)cc2C1=O | -0.0626% |
| Cc1ccc(NC(=O)c2cccc(S(=O)(=O)N3CCOCC3)c2)cc1 | 6% |
| Cc1ccc2c(cnn2C(=O)CCC(=O)NCCc2ccccc2)c1 | -2.88% |
